Data on 35 variants can be found in the GPR68 mutational scans of Howard et al. (2025).

The labels stand for the following.
B1: GPR68, Q15743 (parent)
chain: MGNITADNSSMSCTIDHTIHQTLAPVVYVTVLVVGFPANCLSLYFGYLQIKARNELGVYLCNLTVADLFYICSLPFWLQYVLQHDNWSHGDLSCQVCGILLYENIYISVGFLCCISVDRYLAVAHPFRFHQFRTLKAAVGVSVVIWAKELLTSIYFLMHEEVIEDENQHRVCFEHYPIQAWQRAINYYRFLVGFLFPICLLLASYQGILRAVRRSHGTQKSRKDQIQRLVLSTVVIFLACFLPYHVLLLVRSVWEASCDFAKGVFNAYHFSLLLTSFNCVADPVLYCFVSETTHRDLARLRGACLAFLTCSRTGRAREAYPLGAPEASGKSGAQGEEPELLTKLHPAFQTPNSPGSGGFPTGRLA

Data set [1] covers variants of B1. In words: cAMP reporter score (Enrich2 score, wild type = 0); higher = more signal; HEK293T, FACS bins.
Data set [2] covers variants of B1. Briefly: surface expression score (Enrich2 score, wild type = 0); higher = more signal; HEK293T, FACS bins.

Scores with a large standard error are left out. Not listed are two conditions whose scores span a narrow range. In variant names, del marks residues removed and ins residues inserted between the two positions. For part of these data: How much ogerin was present is not stated here.

For V109C, the cAMP reporter score was -0.35 in data set [1] (pH 5.5); -1.4 in data set [1] (pH 6); -0.344 in data set [1] (pH 6, modulator: ogerin); 0.096 in data set [1] (pH 6.5, modulator: ogerin). The surface expression score in data set [2] was -0.049.
The like results for V109P were, in that order, -1.42, -0.875, -1.77, -0.238 and -2.82.
On to V109E, for which the cAMP reporter score is -0.807 in data set [1] (pH 5.5); -3.03 in data set [1] (pH 6, modulator: ogerin); -0.152 in data set [1] (pH 6.5, modulator: ogerin). Moreover, the surface expression score in data set [2] is -3.54.
For the variant V109F, the cAMP reporter score in data set [1] (pH 5.5) was -2.04; in data set [1] (pH 6.5, modulator: ogerin) it was -1.16. Also, the surface expression score in data set [2] is -2.28.
As to V109Q, the cAMP reporter score in data set [1] (pH 5.5) is -0.112; in data set [1] (pH 6) it was -0.428; in data set [1] (pH 6, modulator: ogerin) it was -0.814. Further, the surface expression score in data set [2] was -1.37.
On to V109G, for which the cAMP reporter score in data set [1] (pH 5.5) is -1.19; in data set [1] (pH 6, modulator: ogerin), -1.26.
Turning to V109N, the cAMP reporter score was -1.14 in data set [1] (pH 5.5); -0.476 in data set [1] (pH 6); -1.67 in data set [1] (pH 6, modulator: ogerin); -1.48 in data set [1] (pH 6.5, modulator: ogerin). Also, in data set [2], the surface expression score is -1.09.
The matching figures for V109L: 0.37, 0.853, -0.059, -0.595 and -1.37.
On to V109Y, for which the cAMP reporter score is -0.397 in data set [1] (pH 5.5); -1.68 in data set [1] (pH 6, modulator: ogerin); -0.439 in data set [1] (pH 6.5, modulator: ogerin).
Regarding V109R, the cAMP reporter score in data set [1] (pH 5.5) was -1.99; in data set [1] (pH 6), -1.32; in data set [1] (pH 6, modulator: ogerin) it was -1.87; in data set [1] (pH 6.5, modulator: ogerin) it was -1.25. The surface expression score in data set [2] is -3.18.
The like results for V109I were, in that order, -0.421, 2.18, -0.598, 0.553 and -0.818.
For the variant D118R, the cAMP reporter score in data set [1] (pH 5.5) was -1.92; in data set [1] (pH 6), -0.713; in data set [1] (pH 6.5, modulator: ogerin) it was -2.33. Further, the surface expression score in data set [2] is -1.69.
Regarding D118L, the cAMP reporter score is 0.237 in data set [1] (pH 5.5); 3.72 in data set [1] (pH 6); 0.661 in data set [1] (pH 6, modulator: ogerin); 2.75 in data set [1] (pH 6.5, modulator: ogerin). Besides, the surface expression score in data set [2] is -2.61.
The like results for D118M were, in that order, -0.755, 1.57, 0.277, -0.671 and -2.91.
The like results for D118E were, in that order, 0.368, -1.19, -0.623, -1.98 and -2.6.
D118Y: the cAMP reporter score in data set [1] (pH 5.5) was -0.406; in data set [1] (pH 6) it was -0.702; in data set [1] (pH 6, modulator: ogerin), -3.56; in data set [1] (pH 6.5, modulator: ogerin) it was -0.436.
For the variant D118F, the cAMP reporter score in data set [1] (pH 5.5) is -2.13; in data set [1] (pH 6) it was -0.181; in data set [1] (pH 6, modulator: ogerin), 0.081; in data set [1] (pH 6.5, modulator: ogerin) it was -0.602. Moreover, in data set [2], the surface expression score is -1.97.
Turning to D118I, the cAMP reporter score in data set [1] (pH 5.5) was -0.408; in data set [1] (pH 6), -0.534; in data set [1] (pH 6, modulator: ogerin), -0.497.
For the variant D118K, the cAMP reporter score was -1.37 in data set [1] (pH 5.5) and -0.818 in data set [1] (pH 6).
For D118H, the cAMP reporter score is -0.421 in data set [1] (pH 5.5); -0.589 in data set [1] (pH 6); -0.44 in data set [1] (pH 6.5, modulator: ogerin).
Take D118N: the cAMP reporter score in data set [1] (pH 5.5) was -0.667; in data set [1] (pH 6) it was 2.92; in data set [1] (pH 6, modulator: ogerin), 0.222; in data set [1] (pH 6.5, modulator: ogerin), 0.188. The surface expression score in data set [2] was determined as 1.13.
The matching figures for D118W: -0.561, 0.164, -1.2, -0.591 and -2.81.
Turning to D118A, the cAMP reporter score in data set [1] (pH 5.5) is -0.421; in data set [1] (pH 6.5, modulator: ogerin), -0.409. In addition, the surface expression score in data set [2] is -0.41.
On to D118S, for which the cAMP reporter score turned out to be 2.11 in data set [1] (pH 5.5); 3.11 in data set [1] (pH 6, modulator: ogerin); 3.29 in data set [1] (pH 6.5, modulator: ogerin). For the same variant, the surface expression score in data set [2] was -0.37.
Turning to L112_C113del, the cAMP reporter score in data set [1] (pH 5.5) is -1.59; in data set [1] (pH 6.5, modulator: ogerin) it was -1.39. Further, the surface expression score in data set [2] was -2.65.
The matching figures for I115_S116insG: -1.23, -1.05 and -2.4.
Consider A122_V123insGSG, for which the cAMP reporter score in data set [1] (pH 5.5) is -0.645; in data set [1] (pH 6.5, modulator: ogerin) it was -0.453. The surface expression score in data set [2] is -1.84.
Take V123S: the cAMP reporter score is -0.991 in data set [1] (pH 5.5); -1.15 in data set [1] (pH 6); -1.02 in data set [1] (pH 6, modulator: ogerin); -0.648 in data set [1] (pH 6.5, modulator: ogerin). The surface expression score in data set [2] was -1.92.
Take V123Y: the cAMP reporter score in data set [1] (pH 5.5) was -1.21; in data set [1] (pH 6) it was -0.434; in data set [1] (pH 6, modulator: ogerin), -1.08; in data set [1] (pH 6.5, modulator: ogerin) it was -0.854. In data set [2], the surface expression score is -1.19.
The like results for V123F were, in that order, -0.865, -1.94, -1.29, -1.37 and -1.77.
In the case of V123G, the cAMP reporter score is -0.109 in data set [1] (pH 5.5); -1.47 in data set [1] (pH 6); -1.23 in data set [1] (pH 6, modulator: ogerin); -0.862 in data set [1] (pH 6.5, modulator: ogerin).
Consider V123C, for which the cAMP reporter score in data set [1] (pH 5.5) was 1.02; in data set [1] (pH 6, modulator: ogerin), -0.917; in data set [1] (pH 6.5, modulator: ogerin), -0.415. For the same variant, the surface expression score in data set [2] was determined as 1.51.
Turning to V123Q, the cAMP reporter score in data set [1] (pH 5.5) is -1.62; in data set [1] (pH 6), -0.764; in data set [1] (pH 6, modulator: ogerin) it was -0.935; in data set [1] (pH 6.5, modulator: ogerin), -1.26. Besides, in data set [2], the surface expression score is -1.97.
With V123K, the cAMP reporter score in data set [1] (pH 5.5) is -0.009; in data set [1] (pH 6, modulator: ogerin), -1.6. In addition, the surface expression score in data set [2] is -1.58.
Turning to V123D, the cAMP reporter score in data set [1] (pH 5.5) was -2.46; in data set [1] (pH 6), -1.08; in data set [1] (pH 6, modulator: ogerin), -0.536; in data set [1] (pH 6.5, modulator: ogerin) it was -0.794. Also, in data set [2], the surface expression score is -2.65.
